# Test results: the BET-seq Pho4 binding data (Le et al. 2018)
# This is one part of the list. These are noisy estimates, calculated here from bound and input reads.
# Target: T1, Pho4 (S. cerevisiae) (UniProt P07270)
# T1 sequence: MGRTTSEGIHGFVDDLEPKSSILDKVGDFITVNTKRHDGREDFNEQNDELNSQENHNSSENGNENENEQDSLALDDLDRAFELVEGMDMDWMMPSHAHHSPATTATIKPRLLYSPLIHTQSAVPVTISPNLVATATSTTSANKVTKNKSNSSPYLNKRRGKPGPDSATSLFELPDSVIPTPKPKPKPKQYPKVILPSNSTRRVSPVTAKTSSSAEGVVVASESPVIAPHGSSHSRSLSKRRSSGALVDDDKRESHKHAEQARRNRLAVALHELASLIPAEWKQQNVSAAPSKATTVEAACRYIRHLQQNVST
# Experiment: relative binding free energy (BET-seq); higher = weaker binding
# Details: reference: library average
row,Sequence,relative binding free energy
1,GCAATCACGTGGGGCG,0.08 kcal/mol
2,GTGGGCACGTGAGAGT,0.18 kcal/mol
3,GAGGTCACGTGTAGGA,0.33 kcal/mol
4,CGGTGCACGTGGGGTG,-0.17 kcal/mol
5,AGGGGCACGTGGGAGA,-0.3 kcal/mol
6,ATACGCACGTGTTTTG,0.01 kcal/mol
7,AGGTGCACGTGCAGGA,-0.02 kcal/mol
8,GACGGCACGTGAAAGG,0.34 kcal/mol
9,TCGGGCACGTGGTGTC,-0.21 kcal/mol
10,GATTTCACGTGGATTA,0.24 kcal/mol
11,GTAAGCACGTGTTCTT,-0.01 kcal/mol
12,GATTGCACGTGGCGTT,-0.05 kcal/mol
13,GGTGTCACGTGGCGGA,0.18 kcal/mol
14,GGTATCACGTGTGGAT,0.3 kcal/mol
15,TTGGGCACGTGTCATT,-0.07 kcal/mol
16,TTAAGCACGTGATCTT,-0.07 kcal/mol
17,GTGTGCACGTGGCAAT,-0.14 kcal/mol
18,ACGTTCACGTGTTGAG,0.23 kcal/mol
19,TCATTCACGTGGGTAA,0.21 kcal/mol
20,TGGGTCACGTGGATCA,0.08 kcal/mol
21,TGGGACACGTGTCGCT,0.05 kcal/mol
22,TTAGGCACGTGTTTAA,0 kcal/mol
23,GGATTCACGTGTTTGA,0.4 kcal/mol
24,GCGAGCACGTGGGCGG,-0.18 kcal/mol
25,TTTACCACGTGAGGTT,0.29 kcal/mol
26,TTGTTCACGTGTGGGT,0.35 kcal/mol

row,Sequence,relative binding free energy
1,TTTTACACGTGTTTAA,0.09 kcal/mol
2,GTGGGCACGTGAATGC,0.04 kcal/mol
3,GTTTTCACGTGCAGTG,0.21 kcal/mol
4,TGGGGCACGTGTCTTT,-0.11 kcal/mol
5,GTAGTCACGTGGTTCA,0.05 kcal/mol
6,CAATGCACGTGTGTGG,0.02 kcal/mol
7,CTGATCACGTGTATGG,0.22 kcal/mol
8,TGGGCCACGTGGCAGT,-0.12 kcal/mol
9,TCGAGCACGTGAGATT,0.39 kcal/mol
10,AGAGGCACGTGGGCAT,-0.31 kcal/mol
11,CGTGCCACGTGCGGGG,-0.24 kcal/mol
12,GTAGTCACGTGTTGTG,0.09 kcal/mol
13,GTGAGCACGTGAATTG,0.35 kcal/mol
14,TCTTGCACGTGGTCTT,-0.07 kcal/mol
15,AAGATCACGTGGAGGT,0.09 kcal/mol
16,TGGCGCACGTGTTTAA,-0.13 kcal/mol
17,TAAATCACGTGTAGTA,0.05 kcal/mol
18,TGCATCACGTGCTGTG,0.2 kcal/mol
19,TGGAGCACGTGCTTTT,-0.01 kcal/mol
20,TACATCACGTGTGGCT,0.16 kcal/mol
21,AGTTACACGTGTTACG,0.05 kcal/mol
22,TGTGGCACGTGGTTTG,-0.06 kcal/mol
23,CGGATCACGTGGGTGA,-0.02 kcal/mol
24,GAGGGCACGTGGATCT,-0.04 kcal/mol
25,TCGGGCACGTGTGGGA,0.02 kcal/mol
26,AAGAACACGTGGGCGG,-0.09 kcal/mol

row,Sequence,relative binding free energy
1,GGTTTCACGTGAATAA,0.39 kcal/mol
2,GATGTCACGTGCGTTA,0.17 kcal/mol
3,GTGGGCACGTGATGAA,0.12 kcal/mol
4,GTAGACACGTGTTAAT,0.15 kcal/mol
5,TAAGACACGTGGTGAA,0.14 kcal/mol
6,TAGGACACGTGTGTGG,0.07 kcal/mol
7,TATGGCACGTGGAGAG,-0.01 kcal/mol
8,GTATTCACGTGGTTCT,0.11 kcal/mol
9,TCGTTCACGTGTTTGC,0.3 kcal/mol
10,GATGCCACGTGTTTTA,0.11 kcal/mol
11,TCCGGCACGTGGGGGT,-0.31 kcal/mol
12,GTGCTCACGTGCGTGG,0.14 kcal/mol
13,TAAGACACGTGCGATG,0.14 kcal/mol
14,GTTATCACGTGGGTGA,0.05 kcal/mol
15,GGGTCCACGTGGGAGA,-0.05 kcal/mol
16,GTGTTCACGTGTAACT,0.28 kcal/mol
17,GGGGACACGTGGCGAG,0.04 kcal/mol
18,TCTTGCACGTGAATGG,0.27 kcal/mol
19,TCAGTCACGTGCAGGG,0.14 kcal/mol
20,AATAGCACGTGTGGGT,0.07 kcal/mol
21,TTTGTCACGTGTGACA,0.1 kcal/mol
22,TAGCCCACGTGTTGGT,-0.01 kcal/mol
23,AAGGTCACGTGTTTAT,0.16 kcal/mol
24,TTCTACACGTGTCGTG,0.18 kcal/mol
25,TTGGTCACGTGAGGCT,0.22 kcal/mol
26,GCGTCCACGTGTGTTT,0.11 kcal/mol

row,Sequence,relative binding free energy
1,GGTGACACGTGAAGGG,0.23 kcal/mol
2,TTGGGCACGTGACTAT,-0.02 kcal/mol
3,TTGTACACGTGTCCGG,0.18 kcal/mol
4,TGTTTCACGTGGAAGG,0.14 kcal/mol
5,GATTACACGTGGGGGA,0.1 kcal/mol
6,TGAGCCACGTGATGGG,0.02 kcal/mol
7,GTGACCACGTGTTTAG,0.09 kcal/mol
8,ATTTCCACGTGATGTG,0.16 kcal/mol
9,TTCGACACGTGTCGGT,0.14 kcal/mol
10,ATATTCACGTGCGTAT,0.08 kcal/mol
11,ATTTGCACGTGTCGTG,0.1 kcal/mol
12,TGGGACACGTGGCTGA,-0.08 kcal/mol
13,TCGGTCACGTGGGTTT,0.01 kcal/mol
14,TACAACACGTGTTGTG,0 kcal/mol
15,ATTTCCACGTGCGGGG,0.03 kcal/mol
16,TTACTCACGTGGCGGT,0.06 kcal/mol
17,ATATTCACGTGAATGT,0.31 kcal/mol
18,TGAATCACGTGGGTCG,0.07 kcal/mol
19,TTACACACGTGTTATG,0.06 kcal/mol
20,CAGGGCACGTGTTAGG,-0.25 kcal/mol
21,AACGTCACGTGATGGT,0.14 kcal/mol
22,AGGCGCACGTGGCGGT,-0.3 kcal/mol
23,AGAGTCACGTGCTGGG,-0.05 kcal/mol
24,GCAGACACGTGAGGGG,0.21 kcal/mol
25,AATCACACGTGTTTTG,0.08 kcal/mol
26,GACAGCACGTGGGTTT,-0.1 kcal/mol

row,Sequence,relative binding free energy
1,ATAAGCACGTGTGTGG,-0.12 kcal/mol
2,TAATTCACGTGGATGA,0.33 kcal/mol
3,TTAAGCACGTGAGGTA,0.25 kcal/mol
4,GTGTACACGTGACGGT,0.12 kcal/mol
5,AAGGGCACGTGCTGTT,-0.06 kcal/mol
6,TCTGTCACGTGATGTT,0.24 kcal/mol
7,TGTTCCACGTGGTATG,-0.07 kcal/mol
8,CCGTACACGTGTTGTT,0.14 kcal/mol
9,CATGTCACGTGGTAGA,0.01 kcal/mol
10,AGTTACACGTGAGGTT,0.15 kcal/mol
11,GGGGGCACGTGCTGTG,-0.27 kcal/mol
12,GTGAGCACGTGTTTAG,-0.16 kcal/mol
13,TTCGTCACGTGGGTCA,-0.09 kcal/mol
14,TGAGGCACGTGCGTAG,-0.22 kcal/mol
15,AATGCCACGTGTGGTA,-0.1 kcal/mol
16,GGTAACACGTGTTTAT,0.04 kcal/mol
17,AGATGCACGTGTTATA,-0.15 kcal/mol
18,TGATTCACGTGGTAGC,0.19 kcal/mol
19,GAGTGCACGTGAAGGA,0.3 kcal/mol
20,CGGTGCACGTGTTCGG,0.01 kcal/mol
21,TGATGCACGTGTGGGG,-0.09 kcal/mol
22,GAGTGCACGTGGTAGA,0.1 kcal/mol
23,TATTGCACGTGTTTCA,-0.03 kcal/mol
24,TCGTGCACGTGTGGGT,0.06 kcal/mol
25,GTCCTCACGTGTTGTT,0.36 kcal/mol
26,TTATGCACGTGAGCGA,0.09 kcal/mol

row,Sequence,relative binding free energy
1,TAGATCACGTGGGCAT,0.06 kcal/mol
2,GGTGTCACGTGGCTGG,0.13 kcal/mol
3,AAGGTCACGTGTGCGG,0.22 kcal/mol
4,TTTTTCACGTGCGATG,0.25 kcal/mol
5,AAGGACACGTGCTGTA,0.1 kcal/mol
6,ATGATCACGTGAAGGT,0.39 kcal/mol
7,TACGGCACGTGAGGTA,0.1 kcal/mol
8,GTTTTCACGTGCTGGT,0.21 kcal/mol
9,CACGGCACGTGGGTAG,-0.16 kcal/mol
10,GTTTACACGTGCAGGG,0.14 kcal/mol
11,CGTGTCACGTGGCCGG,-0.15 kcal/mol
12,TGTTGCACGTGAGTAT,0.36 kcal/mol
13,AAAAGCACGTGTGGGG,-0.05 kcal/mol
14,AAAGTCACGTGCTGTT,0.15 kcal/mol
15,ATGTGCACGTGCGGAG,-0.03 kcal/mol
16,TACGTCACGTGAGGGA,0.34 kcal/mol
17,GTAGGCACGTGGAGTT,0.02 kcal/mol
18,GTACTCACGTGTGTAT,0.24 kcal/mol
19,GGGGGCACGTGCTAGC,-0.26 kcal/mol
20,GGTTGCACGTGGTCCG,-0.01 kcal/mol
21,TTCGGCACGTGTTGGG,-0.03 kcal/mol
22,GAACTCACGTGTGGGA,0.36 kcal/mol
23,GTGGGCACGTGCGCGG,-0.2 kcal/mol
24,GTGTACACGTGGATTA,0.05 kcal/mol
25,AATGACACGTGAAGGT,0.13 kcal/mol
26,CGGGTCACGTGCTGTG,-0.03 kcal/mol

row,Sequence,relative binding free energy
1,CGTGACACGTGGTAGT,-0.06 kcal/mol
2,GTGTGCACGTGATTCT,0.2 kcal/mol
3,ATAGGCACGTGAAGAG,0 kcal/mol
4,TTGGGCACGTGGCAAG,-0.18 kcal/mol
5,AGTAGCACGTGATGGA,0.04 kcal/mol
6,GGTAGCACGTGTAAAG,0.01 kcal/mol
7,TCGTACACGTGAGTGG,0.27 kcal/mol
8,CTGCTCACGTGTTTTT,0.22 kcal/mol
9,GTGATCACGTGACGTT,0.13 kcal/mol
10,GATGCCACGTGGTTAG,-0.13 kcal/mol
11,TAGGACACGTGTTAGA,0.04 kcal/mol
12,TAGTGCACGTGGCTTG,-0.18 kcal/mol
13,GATGGCACGTGAGCGG,0.16 kcal/mol
14,CAGAGCACGTGGTGTG,-0.21 kcal/mol
15,TGTCTCACGTGTTATA,0.36 kcal/mol
16,AAGTTCACGTGATTAG,0.37 kcal/mol
17,TTAGTCACGTGATGAA,0.26 kcal/mol
18,CTCGGCACGTGGGGTA,-0.24 kcal/mol
19,TGGACCACGTGATGGG,0.11 kcal/mol
20,TGGCGCACGTGGGGTT,-0.25 kcal/mol
21,GGAATCACGTGCTTGT,0.07 kcal/mol
22,GTGGACACGTGGAGTT,0.01 kcal/mol
23,AATTTCACGTGAGAAT,0.37 kcal/mol
24,TTGCTCACGTGTTGCA,0.2 kcal/mol
25,GTTGACACGTGATATG,0.22 kcal/mol
26,GAACGCACGTGGTGGG,-0.03 kcal/mol

row,Sequence,relative binding free energy
1,GTCGGCACGTGCGTGT,-0.11 kcal/mol
2,TGGACCACGTGGGGAT,-0.13 kcal/mol
3,GAGGACACGTGTGCTA,0.27 kcal/mol
4,GGGTGCACGTGGCAAT,-0.07 kcal/mol
5,GGGCGCACGTGAAGGT,0.13 kcal/mol
6,CAAGGCACGTGGTGTT,-0.15 kcal/mol
7,TCTATCACGTGTGGTT,0.18 kcal/mol
8,GATTACACGTGGGTTT,0.09 kcal/mol
9,TTGAGCACGTGGATCT,-0.01 kcal/mol
10,GGCTACACGTGGGAGG,0.19 kcal/mol
11,TGAAGCACGTGACGGG,-0.04 kcal/mol
12,TGCGGCACGTGCGTGG,-0.11 kcal/mol
13,CTTGACACGTGGTATG,-0.09 kcal/mol
14,TGGTTCACGTGATAAA,0.48 kcal/mol
15,TGATACACGTGAGTTT,0.2 kcal/mol
16,ATTGGCACGTGGTTGT,-0.19 kcal/mol
17,AGTGGCACGTGTAAAT,-0.03 kcal/mol
18,GGTGTCACGTGAATAC,0.49 kcal/mol
19,TGGTGCACGTGCTTTC,0 kcal/mol
20,TTAAACACGTGGATAG,0.1 kcal/mol
21,TTTGTCACGTGTGTCT,0.19 kcal/mol
22,TAGGGCACGTGGCGTC,-0.14 kcal/mol
23,GGGGACACGTGTTGAT,0.05 kcal/mol
24,TAGGGCACGTGTAGTG,-0.08 kcal/mol
25,GGTAACACGTGTTCGG,0.15 kcal/mol
26,ACGTACACGTGGGTGT,-0.03 kcal/mol

row,Sequence,relative binding free energy
1,GTGTGCACGTGTTGCA,-0.19 kcal/mol
2,AGTGGCACGTGGTCTG,-0.16 kcal/mol
3,TGCGCCACGTGTTTGG,-0.15 kcal/mol
4,AGGCGCACGTGGATGT,-0.09 kcal/mol
5,GGTGGCACGTGTTAGA,-0.09 kcal/mol
6,TAGATCACGTGTTATT,0.24 kcal/mol
7,TAGAACACGTGTTGTT,0.11 kcal/mol
8,GGAGACACGTGGTTTA,-0.03 kcal/mol
9,AGGATCACGTGTTCGG,0.16 kcal/mol
10,GGTGGCACGTGGGTGG,-0.14 kcal/mol
11,TTAATCACGTGGTTTT,0.14 kcal/mol
12,GAATTCACGTGGGCTG,0.3 kcal/mol
13,TAAAACACGTGTGTTT,-0.08 kcal/mol
14,GTTGTCACGTGCAGAA,0.19 kcal/mol
15,TGTGTCACGTGGGGTT,0.07 kcal/mol
16,GGTTACACGTGGGTAC,0.09 kcal/mol
17,AATTACACGTGGTGGG,0.18 kcal/mol
18,TAAGTCACGTGTAATG,0.08 kcal/mol
19,ATTTGCACGTGGTAGA,-0.03 kcal/mol
20,TGTCACACGTGGTTTG,-0.03 kcal/mol
21,ATAAGCACGTGAAAGT,0.19 kcal/mol
22,GGAGGCACGTGCGGGC,-0.08 kcal/mol
